# Results published in the supplement of paper PMC3334620.
# Over roughly 33,000 sequences, “E-score (-0.5 to 0.5)” has its median near -0.054; the highest 2% begin near 0.39. The list shows a part of the results.
# Target: Ylr278c (UniProt Q05854)
# Assay: PBM E-score (8-mer binding enrichment) (E-score (-0.5 to 0.5)); higher = stronger / more preferred TF binding; most listed sequences are background and not binding sites
# Settings: protein concentration: 200 nM; construct: GST-DNA-binding domain
# Protocol: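 Universal 'all 10-mer' protein binding microarrays (Agilent AMADID 015681) probed with GST-tagged S. cerevisiae TFs (full-length or DBD) made by in vitro transcription/translation (PURExpress), about 100-200 nM. Bound TF was detected with fluorescent anti-GST. Each ungapped 8-mer (which stands for itself and its reverse complement) is scored by the PBM enrichment score (E-score), a modified Wilcoxon-Mann-Whitney statistic from -0.5 to +0.5, computed with the Universal PBM Analysis Suite. Scale: above 0.35 generally sequence-specific binding.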
row,Sequence,PBM E-score
1,CATGCAGC,-0.0763
2,GGAGTGCC,0.26
3,AAAGCTGC,-0.0425
4,ACCGGGCA,0.279
5,ATGCCTCG,-0.118
6,ATCTTCCC,0.143
7,CCAAGATC,-0.12
8,GTCAATCA,-0.24
9,AAATGTCT,0.00237
10,AATGAGCC,-0.1
11,GCCCGACA,0.216
12,CGCGTCCG,0.27
13,ACGATGAC,0.00399
14,AACCGATG,0.0999
15,ACTGCACG,-0.0184
16,CGCTCGTC,-0.0988
17,ACGTTTCC,-0.0269
18,CGTCCGCA,0.246
19,GATGATTA,0.0598
20,CGCTCCAA,-0.0664
21,GTTCTAAA,-0.0627
22,CGGAGTTA,0.493
23,TCGAGGAA,-0.246
24,CCCCGAGA,0.272
25,GCCTACAA,0.046

row,Sequence,PBM E-score
1,AACACTTG,-0.16
2,AAACCGTC,-0.0126
3,ACGTAAAC,-0.133
4,TACTTCGA,-0.0676
5,AATGCTAT,-0.234
6,GGGCTAGA,0.109
7,ACTCCTCC,0.229
8,TCGAAAAA,0.023
9,AGGCATGA,-0.259
10,AAGCCTCA,-0.0675
11,TCTCCTAA,-0.144
12,GGTTCCAA,0.188
13,ACAACTAG,-0.0111
14,AACAGCGC,-0.137
15,GGGATAAC,0.163
16,AATAGGCT,0.0282
17,AAGACCCG,0.0763
18,CAAATGCC,0.187
19,CCGAGCGA,0.279
20,CAGCGCCC,-0.099
21,CTAATTGC,0.0847
22,GTCGGCAA,0.184
23,CCTGTTGC,-0.0124
24,GGGTCTCA,-0.12
25,AGCTGCAA,-0.122

row,Sequence,PBM E-score
1,ACCGACTA,0.108
2,CGATTTGA,-0.059
3,GACCCCGA,0.336
4,GGGTGGAC,-0.0268
5,GAACTCCC,0.218
6,GGGCCTCA,0.0262
7,GGAGCTTA,0.098
8,ACTTTATC,0.0391
9,CAAACGCC,0.203
10,CAGACGAC,-0.29
11,ACGTTAGA,-0.175
12,AAGTCACA,-0.146
13,CGCCGTTA,0.173
14,GGTTCCCA,-0.134
15,GGAATGAC,0.0815
16,GTCACGAC,-0.124
17,ATAACCAC,-0.116
18,CCCAACAG,-0.331
19,ATTGGAGC,0.00626
20,AAATCAGT,0.0231
21,GAACAGGA,-0.0691
22,ATGTCTAA,-0.288
23,AGTGATAC,-0.117
24,CCTCCACA,-0.185
25,CAAGTTGC,0.111

row,Sequence,PBM E-score
1,GTGCCTTA,-0.129
2,AGTACCTC,-0.223
3,GTTTAACA,-0.121
4,GGCTTCCC,0.00141
5,AGGTCGAT,0.121
6,GATACGAC,-0.163
7,ACTCTTAG,-0.291
8,GATCTCCA,0.0507
9,ATCCGCCA,0.196
10,GATATCGA,-0.0661
11,GAACCAAC,-0.11
12,ACGTTCAT,-0.195
13,AAGAATCT,-0.128
14,GACACCCA,-0.146
15,GGGCCAGA,0.0393
16,AAATACAT,-0.199
17,ACAACTGC,-0.159
18,AGGGACCT,-0.202
19,ATGATCTG,-0.16
20,CAACATCC,0.143
21,CGACAAGC,-0.0245
22,CGCTGTGC,0.105
23,CCGGGAGC,0.228
24,CCAAAGTA,-0.0903
25,AGGCTGAG,-0.0804

row,Sequence,PBM E-score
1,CAAACCAC,-0.0918
2,ACATCAAT,-0.14
3,GAAGTTAA,-0.172
4,AATAACAC,0.122
5,GACCAAGC,-0.1
6,AAACCCAG,-0.223
7,ACATCAAC,0.05
8,CCACCAAG,-0.0986
9,GGACAAAC,0.0317
10,ATCAATGC,0.00566
11,AACATCCA,-0.0947
12,GAAAAGGA,-0.021
13,ATAGCCAG,-0.226
14,CCTGATCG,-0.0211
15,TCCTGCCA,-0.0528
16,GAGCTAAA,-0.104
17,AAATTGAT,0.148
18,ATTTGTGA,-0.111
19,ATGGAAAA,0.106
20,ACCTCCAA,-0.209
21,ACGGGTCA,-0.211
22,AGCCTGCG,-0.0735
23,GTCCCCAC,-0.142
24,GAGTGGTA,-0.205
25,ATGTCAAT,-0.012

row,Sequence,PBM E-score
1,AATCGAAC,-0.164
2,ATTTGGGA,-0.0715
3,ACGTGCCT,-0.156
4,ATCTTCGG,0.303
5,GTTACAAC,-0.123
6,AAACTAAT,0.105
7,ATCCCATC,-0.16
8,GACTAGAA,0.0394
9,CTTGGGTA,-0.244
10,ATCGGCGG,0.42
11,CGGACCCC,0.365
12,ACATCAGC,-0.0321
13,TATAGGAA,-0.192
14,GACTCACC,-0.121
15,GCCACTCA,-0.161
16,CTTCGAAC,-0.027
17,GTATCAGA,-0.0343
18,GGACTGCA,-0.0459
19,CAGTTGTC,-0.147
20,AGGATGGA,0.102
21,AGTACCCC,0.185
22,ATTGCAAT,0.0974
23,ATCGACAA,-0.0327
24,GGATAACA,0.0565
25,ACGTTCAA,-0.137

row,Sequence,PBM E-score
1,AGCATGTC,-0.119
2,ATATTAGG,-0.183
3,ATCAAAGA,-0.247
4,GATTCGGC,0.318
5,CCCTAGAG,-0.213
6,GCCTATCC,-0.00228
7,TAACGACA,-0.00904
8,GTAGCTCA,-0.043
9,CAGAGAGA,-0.24
10,ATAACTGG,-0.0346
11,GAAGGAGA,-0.0916
12,AAATCCAA,-0.0435
13,GGAGAACA,0.25
14,CAAACCTG,-0.0745
15,CTAGCAAG,-0.253
16,ACAATCCG,0.242
17,GGTAAAAC,0.0161
18,ATGGAGGA,-0.118
19,CTGAGCGA,-0.227
20,AGGGCGCA,-0.196
21,GAGGCCTA,-0.117
22,CACGTATC,-0.15
